To fix the notation:
B1: LINE1-mini (parent)
chain: GGCAGAGCUCAACACAGCGUGGCAAAGUGGCUGUGGCUAGACUGCC

Read counts are not given, so values of variants with three or more changes are uncertain.

In the data set the parent is B1. The experiment in a line: self-cleavage, relative activity (ratio to wild type); higher = more cleavage; in vitro, sequencing; the parent is a self-cleaving ribozyme.
Take U20A G30C A39U: the self-cleavage is 0.71.

With U20A A25C U32C, the self-cleavage was 0.03.

On to G19A G30U G40C, for which the self-cleavage is 0.12.

On to U20A G29C U32G, for which the self-cleavage came to 0.59.

For the variant U20A G21A G30A G36A U38C, the self-cleavage was 0.15.

In the case of U20A C23U G35C A41U, the self-cleavage amounted to 0.12.

As to C18U G22U G27U G33C A41G, the self-cleavage was 0.03.

Turning to C18U G30C U38G, the self-cleavage was 0.02.

In the case of U20A G21U C45G, the self-cleavage was 0.28.

In the case of G19C U32G U43A, the self-cleavage came to 0.11.

Consider C18G G33A C46A, for which the self-cleavage came out at 0.03.

Consider C18G G29A G33U G35A C45A C46U, for which the self-cleavage came out at 0.02.

G19A U20C U38A: the self-cleavage came to 0.01.

As for G19U A25C U34G, the self-cleavage is 0.32.

Regarding C18G G35C A41U, the self-cleavage is 0.03.

G19C A26U U38G: the self-cleavage amounted to 0.01.

G19A A24U G36C: the self-cleavage amounted to 0.07.

For U20C A26G U32G U34G G36C, the self-cleavage is 0.01.

On to G19A C31U G36U, for which the self-cleavage was found to be 0.02.

With C18U G36U C45U C46A, the self-cleavage was determined as 0.11.

With G19A C31U G33A, the self-cleavage was 0.02.

Consider G19A C42G U43C, for which the self-cleavage came out at 0.03.

As for G19U U28A C46G, the self-cleavage worked out at 0.68.

In the case of U20A G44A C45U, the self-cleavage was 0.05.

C18U U28A C45G: the self-cleavage was determined as 0.11.

For the variant G19A U20A G30U, the self-cleavage was 1.21.

On to G19A G29U C31A C37U, for which the self-cleavage was found to be 0.05.

On to C18U G19U U32A, for which the self-cleavage came to 0.01.

Regarding U20A G21A A24C C37A A39U, the self-cleavage was found to be 0.02.

With G19C C31U U43C, the self-cleavage came to 0.02.

As for C18G G21C A41C, the self-cleavage stood at 0.01.

As to C18U U28A G29C U34G, the self-cleavage was 0.13.

Regarding G19C U28C G33C G36A C37A, the self-cleavage is 0.06.

Take G19U A24G A39U C46G: the self-cleavage was determined as 0.05.

Turning to C18U G21U U34C, the self-cleavage turned out to be 0.09.

As for C18U G30U G44C, the self-cleavage was determined as 0.16.

Take G19U C23U C31A: the self-cleavage is 0.87.

Turning to G19C U32A G33A C42U G44U, the self-cleavage was determined as 0.1.

In the case of C18U G22U C31U G33U, the self-cleavage was 0.03.

With G19C G29C C46A, the self-cleavage is 0.31.

For the variant G19A C23U C42A, the self-cleavage was found to be 0.08.

Regarding U20C C23U A24U U32G, the self-cleavage stood at 0.06.

For C18U A25U G27A G33A, the self-cleavage turned out to be 0.18.

Consider C18U C23U U28A G29C, for which the self-cleavage is 0.23.

Consider C18U G21A G27A C31G, for which the self-cleavage turned out to be 0.13.

As for C18U A24C A41G C45U, the self-cleavage was determined as 0.02.

Take U20A G33A G36A: the self-cleavage is 0.05.

G19C G29C G30U G40C A41C: the self-cleavage was found to be 0.08.

Regarding C18U U28G G29A, the self-cleavage is 0.77.

Turning to U20A G30C G33U G36C, the self-cleavage worked out at 0.02.

G19C G21U C42U: the self-cleavage was determined as 0.21.

Consider G19C C42A C45A, for which the self-cleavage stood at 0.02.

For the variant U20C C23A G30U A39U, the self-cleavage turned out to be 0.05.

As for G19U G21A C31U C37A, the self-cleavage was found to be 0.09.

On to C18U G21A G30U, for which the self-cleavage was 0.55.

Regarding U20A A26G G27A U32C A41U C42A, the self-cleavage worked out at 0.01.

On to G19C A24C G40C C45A, for which the self-cleavage turned out to be 0.02.

As for C18G G22A U32C G44U, the self-cleavage stood at 0.04.

For the variant C18U U20G C42G U43G, the self-cleavage is 0.14.

Take G19A A24G C46U: the self-cleavage turned out to be 1.66.

Consider C18G G29C G33U A39U, for which the self-cleavage stood at 0.02.

For U20A G36C U38G, the self-cleavage came out at 0.02.

With G19U A25C G27U C37A, the self-cleavage came out at 0.01.

Regarding U20A G22A C23A C37G, the self-cleavage was determined as 0.03.

Take U20A G21U U38A: the self-cleavage was 0.11.

U20A A24U A25C C46G: the self-cleavage was 0.03.

As for G19C U20A A26C G33U, the self-cleavage is 0.21.

With G19C C23A A26C A39U, the self-cleavage stood at 0.04.

Turning to C18U G33U U34A G35U, the self-cleavage amounted to 0.03.

On to C18U G33U G36U A41U, for which the self-cleavage came out at 0.

In the case of G19A G21A A24G, the self-cleavage was 1.77.

As to U20A G30U C42G, the self-cleavage was 0.04.

Take C18G G22C C37U: the self-cleavage amounted to 0.07.

With U20C A25G C37A C46U, the self-cleavage worked out at 0.04.

Regarding C18G U32C C45A, the self-cleavage turned out to be 0.12.

Consider U20A C23U U28C G30U C45U, for which the self-cleavage was 0.86.

For U20A A25C G36C C42G, the self-cleavage was determined as 0.

On to G19A C37U U38C, for which the self-cleavage was determined as 0.03.

On to C18U A25C U38G G44A, for which the self-cleavage came to 0.01.

As for C18U A25U U28A G35C C37A, the self-cleavage was 0.03.

On to C18U G19U C37U, for which the self-cleavage was 0.04.

For C18G G33U G40A, the self-cleavage was found to be 0.02.

As for G19A U32A G33U, the self-cleavage came to 0.1.

Consider G19A A25C G40A, for which the self-cleavage amounted to 0.19.

Take G19C C23U C46A: the self-cleavage came out at 1.29.

For the variant G19C A25G C37U C46G, the self-cleavage amounted to 0.07.

In the case of C18U U20C C37G, the self-cleavage came out at 0.04.

Turning to C18U U20A A24U, the self-cleavage came out at 1.4.

As for C18U G29A C37G, the self-cleavage was determined as 0.04.

With U20C A25U G29C A39U, the self-cleavage came to 0.23.

Regarding G19U G36A C45A, the self-cleavage came to 0.02.

Consider G19U C23U U28A, for which the self-cleavage was 0.11.

Regarding C18G U28G G35C C37U, the self-cleavage turned out to be 0.02.

On to G19C G29U G35U, for which the self-cleavage amounted to 0.08.

Consider G19U A26U U38G G40C, for which the self-cleavage is 0.

Regarding G19C G30C C31G U38G, the self-cleavage is 0.03.

On to G19U C23G G40U, for which the self-cleavage came out at 0.09.

For the variant G19A U28A G35A, the self-cleavage was 0.07.

As to G19C G36U C46A, the self-cleavage stood at 0.11.

For the variant G19U A26C A39U, the self-cleavage amounted to 0.01.

On to G19C G36A C42A, for which the self-cleavage came out at 0.13.

For C18U A24U A25U, the self-cleavage came out at 0.14.

On to G19C G40A U43G, for which the self-cleavage came to 0.01.

In the case of G19C G21C A26G G36U U43A, the self-cleavage came out at 0.01.

G19A A39C G44A C46U: the self-cleavage came out at 0.08.

For G19C G21U C31A C42G, the self-cleavage turned out to be 0.07.

As to U20A A25U U38G, the self-cleavage turned out to be 0.03.

G19A G29A G44A: the self-cleavage was found to be 0.97.

U20A G27U A39U: the self-cleavage was 0.49.

Take G19U A24G G30A C37G: the self-cleavage is 0.06.

For G19A G21A G27A C45U C46A, the self-cleavage is 1.38.

Regarding U20A U43G C45U, the self-cleavage amounted to 0.01.

C18U G29A C46U: the self-cleavage was 1.91.

Take G19U A39G C42A: the self-cleavage stood at 0.02.

With G19U U20A C42U, the self-cleavage stood at 0.06.

Regarding U20A G29A G36U, the self-cleavage stood at 0.11.

Consider C18G U28A C31G, for which the self-cleavage is 0.03.

On to G19A G29U G40U C42U, for which the self-cleavage was determined as 0.1.

Consider G19A A25U G40U A41C, for which the self-cleavage was found to be 0.62.

As to G19C U34A U38C C46A, the self-cleavage came to 0.07.

Consider C18U G29U C31A, for which the self-cleavage was found to be 0.09.

As for G19A C31U U34C A41U, the self-cleavage amounted to 0.03.

U20A C23U G29C: the self-cleavage amounted to 0.29.

C18G G22C U32C G44A: the self-cleavage came out at 0.07.

Turning to G19C U34C G35A C42U, the self-cleavage is 0.07.

As to G19A A25U A39G, the self-cleavage came to 0.03.

Regarding G19U G40A U43C, the self-cleavage worked out at 0.02.

Take C18U G19A U32A G33A C42A: the self-cleavage came to 0.

Take G19C G21A C23A U32A G40C: the self-cleavage was 0.03.

Take G19A A25G A41C G44C: the self-cleavage amounted to 0.07.

Take G19C G27U A41C: the self-cleavage stood at 0.01.

As for G19U A26C C37G, the self-cleavage was determined as 0.03.

As to G19U U20G G40A, the self-cleavage turned out to be 0.26.

Regarding C18G G21C A26U G27U C31A, the self-cleavage is 0.12.

G19U C23A U32G U34C: the self-cleavage was 0.03.

As for C18U U20G C42A, the self-cleavage amounted to 0.03.

Turning to G19U C23A U34G, the self-cleavage worked out at 0.41.

For the variant C18G G36U C45A, the self-cleavage was 0.04.

Consider C18U A25G C31U U34G, for which the self-cleavage turned out to be 0.02.

Consider U20C A24U G33U, for which the self-cleavage worked out at 0.05.

With U20A C23U G30A G40U, the self-cleavage was 0.11.

In the case of G19A G29U U32C G33A C46G, the self-cleavage turned out to be 0.05.

On to C18U G29U U38G, for which the self-cleavage was 0.45.

On to C18U G19A C31U C37A C42G, for which the self-cleavage is 0.

With G19A A24G A41C, the self-cleavage came out at 0.02.

C18U U34A U43C: the self-cleavage came out at 0.01.

With C18U G30A G40A, the self-cleavage came out at 0.09.

U20C C23A U32A: the self-cleavage worked out at 0.1.

As to G19C C31A C45U, the self-cleavage was 0.09.

For C18G G36U G40A, the self-cleavage came to 0.07.

G19A G22U C23U U38A C46A: the self-cleavage amounted to 0.1.

With C18U G22U A26C C31U G33C U43C, the self-cleavage worked out at 0.01.

With G19U G21C C31G, the self-cleavage was found to be 0.18.

For G19U A25G G36A, the self-cleavage stood at 0.14.

G19A C23A A25C G33A A41G: the self-cleavage worked out at 0.05.

On to G19A G21A G22U U28G, for which the self-cleavage amounted to 0.62.

As to U20A U28C G35U, the self-cleavage turned out to be 0.07.

Turning to G19A U20C A26C, the self-cleavage amounted to 0.08.

As to G19A C31A U43A, the self-cleavage is 0.08.

As for C18G G27U C31A, the self-cleavage is 1.07.

Turning to C18U U32A G33U, the self-cleavage came out at 0.01.

In the case of G19A C42A U43A G44C, the self-cleavage worked out at 0.04.

As for G19C U20A G36A G40C, the self-cleavage was 0.03.

Consider G19U A25C A26G G30C G40C, for which the self-cleavage was determined as 0.03.

Regarding G19C U28A U38G C42A, the self-cleavage amounted to 0.01.

With C18G G22A A26U, the self-cleavage stood at 0.45.

For C18U G19U C45A, the self-cleavage turned out to be 2.24.

Source of the values: the RNAGym collection of RNA variant scans (doi:10.7554/elife.90254).
